The supplement of paper PMC8728848
The other results are listed elsewhere or left out.

Key:
Experiment in all cases: glycan array binding signal (z-score within array); higher = stronger binding
Conditions in all cases: glycan notation: IUPAC condensed, linker removed
[1] = biological target: Gal(a1-3)Gal(b1-3)[Fuc(a1-4)]GlcNAc(b1-2)Man(a1-3)[Gal(a1-3)Gal(b1-3)[Fuc(a1-4)]GlcNAc(b1-2)Man(a1-6)]Man(b1-4)GlcNAc(b1-4)GlcNAc
How it was run: (§1)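 Glycan array binding is given as a within-array Z-score, which can be read as non-binding when negative. The arrays, 3228 of them, came from the Consortium for Functional Glycomics database and were retained only where the protein sequence was available. Z-scores were averaged across arrays of the same protein sequence at different concentrations or buffers and across linkers.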

Gal(a1-3)Gal(b1-4)Glc = biological target: Gal(a1-3)Gal(b1-4)Glc
How it was run: as §1

Gal(a1-3)Gal(b1-4)GlcNAc = biological target: Gal(a1-3)Gal(b1-4)GlcNAc
How it was run: as §1

[2] = biological target: Gal(a1-3)Gal(b1-4)GlcNAc(b1-2)Man
How it was run: as §1

[3] = biological target: Gal(a1-3)Gal(b1-4)GlcNAc(b1-2)Man(a1-3)[Gal(a1-3)Gal(b1-4)GlcNAc(b1-2)Man(a1-6)]Man(b1-4)GlcNAc(b1-4)GlcNAc
How it was run: as §1

[4] = biological target: Gal(a1-3)Gal(b1-4)GlcNAc(b1-3)GalNAc
How it was run: as §1

[5] = biological target: Gal(a1-3)Gal(b1-4)GlcNAc(b1-6)GalNAc
How it was run: as §1

[6] = biological target: Gal(a1-3)Gal(b1-4)[Fuc(a1-3)]GlcNAc
How it was run: as §1

[7] = biological target: Gal(a1-3)Gal(b1-4)[Fuc(a1-3)]GlcNAc(b1-2)Man(a1-3)[Gal(a1-3)Gal(b1-4)[Fuc(a1-3)]GlcNAc(b1-2)Man(a1-6)]Man(b1-4)GlcNAc(b1-4)GlcNAc
How it was run: as §1

Gal(a1-3)GalNAc = biological target: Gal(a1-3)GalNAc
How it was run: as §1

[8] = biological target: Gal(a1-3)[Gal(a1-4)]Gal(b1-4)GlcNAc
How it was run: as §1

[9] = biological target: Gal(a1-4)Gal(b1-3)GlcNAc(b1-2)Man(a1-3)[Gal(a1-4)Gal(b1-3)GlcNAc(b1-2)Man(a1-6)]Man(b1-4)GlcNAc(b1-4)GlcNAc
How it was run: as §1

Gal(a1-4)Gal(b1-4)Glc = biological target: Gal(a1-4)Gal(b1-4)Glc
How it was run: as §1

Gal(a1-4)Gal(b1-4)GlcNAc = biological target: Gal(a1-4)Gal(b1-4)GlcNAc
How it was run: as §1

[10] = biological target: Gal(a1-4)Gal(b1-4)GlcNAc(b1-2)Man(a1-3)[Gal(a1-4)Gal(b1-4)GlcNAc(b1-2)Man(a1-6)]Man(b1-4)GlcNAc(b1-4)GlcNAc
How it was run: as §1

[11] = biological target: Gal(a1-4)Gal(b1-4)GlcNAc(b1-3)Gal(b1-4)Glc
How it was run: as §1

Gal(a1-4)GlcNAc = biological target: Gal(a1-4)GlcNAc
How it was run: as §1

Gal(a1-6)Glc = biological target: Gal(a1-6)Glc
How it was run: as §1

Gal(b1-2)Gal = biological target: Gal(b1-2)Gal
How it was run: as §1

Gal(b1-3)Gal = biological target: Gal(b1-3)Gal
How it was run: as §1

Gal(b1-3)Gal(b1-4)GlcNAc = biological target: Gal(b1-3)Gal(b1-4)GlcNAc
How it was run: as §1

Gal(b1-3)GalNAc = biological target: Gal(b1-3)GalNAc
How it was run: as §1

[12] = biological target: Gal(b1-3)GalNAc(a1-3)[Fuc(a1-2)]Gal(b1-4)Glc
How it was run: as §1

[13] = biological target: Gal(b1-3)GalNAc(a1-3)[Fuc(a1-2)]Gal(b1-4)GlcNAc
How it was run: as §1

Gal(b1-3)GalNAc(b1-3)Gal = biological target: Gal(b1-3)GalNAc(b1-3)Gal
How it was run: as §1

[14] = biological target: Gal(b1-3)GalNAc(b1-3)Gal(a1-4)Gal(b1-4)Glc
How it was run: as §1

[15] = biological target: Gal(b1-3)GalNAc(b1-4)Gal(b1-4)Glc
How it was run: as §1

[16] = biological target: Gal(b1-3)GalNAc(b1-4)[Neu5Ac(a2-3)]Gal(b1-4)Glc
How it was run: as §1

Gal(b1-3)GlcNAc = biological target: Gal(b1-3)GlcNAc
How it was run: as §1

[17] = biological target: Gal(b1-3)GlcNAc(a1-3)Gal(b1-4)GlcNAc
How it was run: as §1

[18] = biological target: Gal(b1-3)GlcNAc(a1-6)Gal(b1-4)GlcNAc
How it was run: as §1

Gal(b1-3)GlcNAc(b1-2)Man = biological target: Gal(b1-3)GlcNAc(b1-2)Man
How it was run: as §1

[19] = biological target: Gal(b1-3)GlcNAc(b1-2)Man(a1-3)[Gal(b1-3)GlcNAc(b1-2)Man(a1-6)]Man(b1-4)GlcNAc(b1-4)GlcNAc
How it was run: as §1

[20] = biological target: Gal(b1-3)GlcNAc(b1-2)Man(a1-3)[Gal(b1-3)GlcNAc(b1-2)Man(a1-6)]Man(b1-4)GlcNAc(b1-4)[Fuc(a1-6)]GlcNAc
How it was run: as §1

[21] = biological target: Gal(b1-3)GlcNAc(b1-2)Man(a1-3)[GlcNAc(b1-4)][Gal(b1-3)GlcNAc(b1-2)Man(a1-6)]Man(b1-4)GlcNAc(b1-4)GlcNAc
How it was run: as §1

[22] = biological target: Gal(b1-3)GlcNAc(b1-2)[Gal(b1-3)GlcNAc(b1-6)]Man(a1-6)[Gal(b1-3)GlcNAc(b1-2)Man(a1-3)]Man(b1-4)GlcNAc(b1-4)GlcNAc
How it was run: as §1

[23] = biological target: Gal(b1-3)GlcNAc(b1-3)Gal(b1-3)GlcNAc
How it was run: as §1

[24] = biological target: Gal(b1-3)GlcNAc(b1-3)Gal(b1-4)Glc
How it was run: as §1

[25] = biological target: Gal(b1-3)GlcNAc(b1-3)Gal(b1-4)GlcNAc
How it was run: as §1

[26] = biological target: Gal(b1-3)GlcNAc(b1-3)Gal(b1-4)GlcNAc(b1-2)Man(a1-3)[Gal(b1-3)GlcNAc(b1-3)Gal(b1-4)GlcNAc(b1-2)Man(a1-6)]Man(b1-4)GlcNAc(b1-4)GlcNAc
How it was run: as §1

[27] = biological target: Gal(b1-3)GlcNAc(b1-3)Gal(b1-4)GlcNAc(b1-2)[Gal(b1-3)GlcNAc(b1-3)Gal(b1-4)GlcNAc(b1-6)]Man(a1-6)[Gal(b1-3)GlcNAc(b1-3)Gal(b1-4)GlcNAc(b1-2)Man(a1-3)]Man(b1-4)GlcNAc(b1-4)[Fuc(a1-6)]GlcNAc
How it was run: as §1

[28] = biological target: Gal(b1-3)GlcNAc(b1-3)Gal(b1-4)GlcNAc(b1-3)Gal(b1-4)GlcNAc(b1-2)[Gal(b1-3)GlcNAc(b1-3)Gal(b1-4)GlcNAc(b1-3)Gal(b1-4)GlcNAc(b1-6)]Man(a1-6)[Gal(b1-3)GlcNAc(b1-3)Gal(b1-4)GlcNAc(b1-3)Gal(b1-4)GlcNAc(b1-2)Man(a1-3)]Man(b1-4)GlcNAc(b1-4)[Fuc(a1-6)]GlcNAc
How it was run: as §1

[29] = biological target: Gal(b1-3)GlcNAc(b1-3)Gal(b1-4)GlcNAc(b1-6)[Gal(b1-3)GlcNAc(b1-3)]Gal(b1-4)Glc
How it was run: as §1

[30] = biological target: Gal(b1-3)GlcNAc(b1-3)Gal(b1-4)[Fuc(a1-3)]GlcNAc
How it was run: as §1

[31] = biological target: Gal(b1-3)GlcNAc(b1-3)Gal(b1-4)[Fuc(a1-3)]GlcNAc(b1-6)[Gal(b1-3)GlcNAc(b1-3)]Gal(b1-4)Glc
How it was run: as §1

B1: SJA (Sophora japonica) (protein)
chain: FLGLFNSGGYSSSYQIVAVEFDTYINEWDPKTRHIGIDINSINSTKTVTWGWENGEVAIVLISYKAATETLTVSLTYPSSQTSYILSAAVDLKSILPEWVRIGF
glycan array binding signal (z-score) [1]: -0.094
glycan array binding signal (z-score) (Gal(a1-3)Gal(b1-4)Glc): -0.143
glycan array binding signal (z-score) (Gal(a1-3)Gal(b1-4)GlcNAc): -0.122
glycan array binding signal (z-score) [2]: -0.262
glycan array binding signal (z-score) [3]: -0.006
glycan array binding signal (z-score) [4]: -0.133
glycan array binding signal (z-score) [5]: -0.299
glycan array binding signal (z-score) [6]: -0.112
glycan array binding signal (z-score) [7]: -0.159
glycan array binding signal (z-score) (Gal(a1-3)GalNAc): -0.144
glycan array binding signal (z-score) [8]: -0.145
glycan array binding signal (z-score) [9]: -0.339
glycan array binding signal (z-score) (Gal(a1-4)Gal(b1-4)Glc): -0.134
glycan array binding signal (z-score) (Gal(a1-4)Gal(b1-4)GlcNAc): -0.194
glycan array binding signal (z-score) [10]: -0.382
glycan array binding signal (z-score) [11]: -0.074
glycan array binding signal (z-score) (Gal(a1-4)GlcNAc): -0.096
glycan array binding signal (z-score) (Gal(a1-6)Glc): -0.167
glycan array binding signal (z-score) (Gal(b1-2)Gal): -0.176
glycan array binding signal (z-score) (Gal(b1-3)Gal): -0.078
glycan array binding signal (z-score) (Gal(b1-3)Gal(b1-4)GlcNAc): -0.108
glycan array binding signal (z-score) (Gal(b1-3)GalNAc): -0.188
glycan array binding signal (z-score) [12]: -0.383
glycan array binding signal (z-score) [13]: -0.337
glycan array binding signal (z-score) (Gal(b1-3)GalNAc(b1-3)Gal): -0.219
glycan array binding signal (z-score) [14]: -0.044
glycan array binding signal (z-score) [15]: -0.008
glycan array binding signal (z-score) [16]: -0.183
glycan array binding signal (z-score) (Gal(b1-3)GlcNAc): -0.187
glycan array binding signal (z-score) [17]: -0.361
glycan array binding signal (z-score) [18]: -0.076
glycan array binding signal (z-score) (Gal(b1-3)GlcNAc(b1-2)Man): -0.111
glycan array binding signal (z-score) [19]: -0.024
glycan array binding signal (z-score) [20]: -0.007
glycan array binding signal (z-score) [21]: -0.265
glycan array binding signal (z-score) [22]: -0.339
glycan array binding signal (z-score) [23]: -0.114
glycan array binding signal (z-score) [24]: -0.205
glycan array binding signal (z-score) [25]: -0.21
glycan array binding signal (z-score) [26]: -0.124
glycan array binding signal (z-score) [27]: -0.135
glycan array binding signal (z-score) [28]: 0.238
glycan array binding signal (z-score) [29]: -0.198
glycan array binding signal (z-score) [30]: -0.027
glycan array binding signal (z-score) [31]: -0.154
